Measured values reported in PubChem BioAssay AID504832 (National Center for Advancing Translational Sciences (NCATS), 2011).
The whole screen tested about 310,000 compounds, of which about 18,000 (5.8%) were called active. The shares of active, inactive and inconclusive entries below differ from those in the screen. Calls follow the shape of the dose curve; as a rule, active = well fitted inhibition curve with a large enough effect; inconclusive = small, poorly fitted or top-dose-only effect, or another doubt; inactive = no such curve, though single readings can be large or run the other way. Potencies of inconclusive entries are left out as doubtful fits.

Experiment: Primary qHTS for delayed death inhibitors of the malarial parasite plastid, 48 hour incubation
Settings: P. falciparum luciferase growth in erythrocytes; series mostly up to 28.7 µM
In short: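 Luciferase-expressing parasites in RBCs, 2% Hct / 0.1% parasitemia final; RPMI 1640 + 0.5% Albumax; 37 C, 5% CO2, one generation; luminescence read-out, lower signal = inhibition.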
Potency is read from the fitted curve at half-maximal effect; tags tell the direction and shape of the fitted curve.

Row | Structure (SMILES) | Potency
1 | COc1ccccc1C(CNC(=O)CNC(=O)c1ccccc1Cl)N1CCCC1 (configuration not stated) | inactive
2 | Cc1c(CN2CCC(n3nccc3NC(=O)C3CC3)CC2)[nH]c2ccccc12 | inconclusive [inhibitor, single point]
3 | CCn1c(SCC(=O)NC(C)(C)C)nc(O)cc1=O | inconclusive [inhibitor, partial curve]
4 | CSc1ncccc1C(=O)N(C)CC(=O)Nc1ccc(Cl)cc1 | inactive
5 | Cc1nc2cc(C(=O)N3CCc4ccccc43)ccc2n1-c1ccc(F)c(F)c1 | inactive
6 | CN1C(=O)NC(NC(=O)c2cccs2)(C(F)(F)F)C1=O (configuration not stated) | inactive
7 | CCCCCCCCCCCCCCCCCCO | inactive
8 | Cc1cc(C)cc(NC(=O)Nc2ccc(-n3ccc(C(F)(F)F)n3)cc2)c1 | active: 11.7 µM
9 | N#Cc1cnn2cc(-c3ncc(C(F)(F)F)cc3Cl)cnc12 | inconclusive [inhibitor, single point]
10 | CC1(C)Cc2c(c(=S)nc(-c3ccccc3)n2Cc2cccnc2)CO1 | inconclusive [inhibitor, full curve, poor fit]
11 | O=C(Nc1ccccc1)c1ccc2nc(-c3ccco3)c(-c3ccco3)nc2c1 | inconclusive [inhibitor, single point]
12 | COc1cc(O)cc(O)c1C(=O)/C=C/c1ccccc1 | inconclusive [inhibitor, single point]
13 | CCOC(=O)CC(NC(=O)c1cc2cccc(OC)c2oc1=O)c1ccc(OC)cc1 (configuration not stated) | inactive
14 | CC(=O)Nc1ccc(C(=O)NNS(=O)(=O)c2ccc(C)cc2)cc1 | inactive
15 | COCCn1c(-c2ccccc2)nc2oc3cc(OC)ccc3c(=O)c2c1=O | inconclusive [inhibitor, full curve, poor fit]
16 | Cc1cccc(C)c1OCC(O)CN (configuration not stated) | inactive
17 | Cc1ccc(Sc2c(O)c3ccccc3n(C)c2=O)cc1 | inactive
18 | COc1cccc(CNC(=O)C2CCC(CNc3c(N4CCC(C)CC4)c(=O)c3=O)CC2)c1 (configuration not stated) | inconclusive [inhibitor, single point]
19 | O=C(Nc1ccccc1Cc1ccccc1)c1ccccc1F | inconclusive [inhibitor, single point]
20 | CCC(=O)Nc1sc2c(c1C(N)=O)CCN(Cc1ccccc1)C2 | inactive
21 | O=[N+]([O-])c1ccc(Cl)c(CN2CCCCCC2)c1 | inconclusive [inhibitor, partial curve, poor fit]
22 | O=C(CCc1ccc(S(=O)(=O)NCc2ccccc2)cc1)N1CCN(Cc2ccc3c(c2)OCO3)CC1 | inconclusive [inhibitor, single point]
23 | O=C(NCc1cccnc1)c1ccc(NC(=O)c2ccc([N+](=O)[O-])cc2)cc1 | inconclusive [inhibitor, single point]
24 | COCCCNC(=O)C1CCN(S(=O)(=O)N(CC(C)C)CC(C)C)CC1 | inconclusive [inhibitor, single point]
25 | CC1CCc2c(C(=O)NCCN3CCOCC3)csc2C1 (configuration not stated) | inactive
26 | C=CCC1C=CCC(CC=C)N1C(=O)c1ccccc1[N+](=O)[O-] (configuration not stated) | inconclusive [inhibitor, single point]

Row | Structure (SMILES) | Potency
27 | COc1ccc(CN2C3CCC2CC(NC(=O)c2cc(OC)c(OC)c(OC)c2)C3)cc1 (configuration not stated) | inconclusive [inhibitor, partial curve, poor fit]
28 | O=C(CSc1nnc(NC(=O)c2ccc(F)cc2)s1)NC1CCCC1 | inactive
29 | Cc1ccc(C)c(NC(=O)CN2C(=O)CC(C)S(=O)(=O)c3ccccc32)c1 (configuration not stated) | inactive
30 | Cc1ccc(CNC(=O)CN(Cc2cccs2)C(=O)C2(C)CC(=O)N=C3C=CC=CN32)cc1 (configuration not stated) | inactive
31 | Cc1cc(C)nc(/N=C(\N)Nc2ccc(S(=O)(=O)Nc3nc(C)cc(C)n3)cc2)n1 | inactive
32 | COC(=O)c1[nH]c2cccc(Cl)c2c1NC(=O)CN1CCN(CCO)CC1 | inactive
33 | O=C(NCc1ccco1)c1ccc(Cl)s1 | inactive
34 | CCN(CC)CCN(CC(=O)N(C1CCCCC1)C1CCCCC1)C(=O)c1cccnc1 | inconclusive [inhibitor, partial curve, poor fit]
35 | CC1CCCC(NC(=O)COC(=O)Cc2ccsc2)C1C (configuration not stated) | inactive
36 | Cc1oc2c(CN3CCOCC3)c(O)ccc2c(=O)c1-c1ccc(Br)cc1 | active: 4.15 µM
37 | O=c1/c(=C\c2cc([N+](=O)[O-])cc([N+](=O)[O-])c2O)sc2nc3ccccc3n12 | inactive
38 | Cc1[nH]n(-c2nc(-c3ccc(Cl)cc3)cs2)c(=O)c1N=Nc1ccc(O)cc1 | inconclusive [inhibitor, single point]
39 | CCOc1ccccc1N1CCN(C(=O)c2ccncc2)CC1 | inactive
40 | CC(=O)c1cn(CCOc2ccc(F)cc2)c2ccccc12 | inconclusive [inhibitor, partial curve, poor fit]
41 | CC(C)C[C@@H](CO)N1CCN(CCc2ccccc2)CCC1=O | inactive
42 | COc1ccc(OC)c(Nc2nc3ccc(C)cc3n3cnnc23)c1 | inconclusive [inhibitor, single point]
43 | COc1ccccc1Nc1nnc(SCC(=O)N2CCCC2=O)s1 | inactive
44 | COc1ccc(/C=C\c2nc(=O)c3ccccc3o2)cc1 | inconclusive [inhibitor, full curve, poor fit]
45 | CCOc1cc(CN2CCCC(CNC(=O)c3ccc(F)cc3)C2)ccc1OC (configuration not stated) | inconclusive [inhibitor, partial curve]
46 | CN(C(=O)CSc1ncnc2ccccc12)C1CCS(=O)(=O)C1 (configuration not stated) | inconclusive [inhibitor, single point]
47 | N#CC(C(=O)O)=C1CCCC1 | inactive
48 | Cc1cc(NC(=O)C(Cl)c2ccccc2)no1 (configuration not stated) | inconclusive [inhibitor, full curve]
49 | COc1ccc(NC(=S)N2CCC(C(=O)N3CCCCCC3)CC2)cc1 | inconclusive [inhibitor, single point]
50 | CC1CCN(S(=O)(=O)c2cc(C(=O)Nc3ccccn3)ccc2Br)CC1 | inconclusive [inhibitor, single point]
51 | COc1cc(/C=C/C(=O)OCC(=O)Nc2cc(S(=O)(=O)N(C)C)ccc2Cl)ccc1O | inactive
52 | O=C(O)c1ccc(COc2ccc3ccccc3c2/C=C2/NC(=O)N(c3ccccc3)C2=O)cc1 | active: 5.86 µM

Row | Structure (SMILES) | Potency
53 | Cc1onc(-c2ccccc2Cl)c1C(=O)N1CCc2ccccc21 | inconclusive [inhibitor, partial curve]
54 | O=C(c1ccccc1)C1CCN(C(=O)Nc2ccccc2)CC1 | inconclusive [inhibitor, full curve, poor fit]
55 | COC(=O)c1sccc1NC(=O)/C=C/c1c(Cl)cccc1Cl | inactive
56 | COc1ccc(S(=O)(=O)N(CC(=O)Nc2ccccc2C(=O)N2CCOCC2)c2ccc(F)cc2)cc1 | inconclusive [inhibitor, single point]
57 | C[C@@H]1CN(C(=O)c2cc(COc3cccc(C(F)(F)F)c3)on2)C[C@H](C)O1 | inconclusive [inhibitor, partial curve]
58 | COc1ccc(OC)c(-n2c(-c3ccc(O)cc3O)n[nH]c2=S)c1 | inconclusive [inhibitor, full curve, poor fit]
59 | COc1ccc(-n2nc(C(=O)O)cc2-c2ccccc2)cc1 | inactive
60 | Cc1[nH]c(C)c2c(=O)n(Cc3ccc(Cl)cc3)ncc12 | active: 11.7 µM
61 | Fc1ccc(/C=N/Nc2ccccn2)cc1 | inactive
62 | Cc1cccc(NC(=O)CCNC(=O)c2ccc(Br)cc2)c1 | inactive
63 | CCN1CCCC1CNC(=O)c1ccccc1Cl (configuration not stated) | inactive
64 | CC(C)(C)OC(=O)N1CCC[C@H]1C(=O)N/N=C/c1cccc2cccnc12 | inconclusive [inhibitor, partial curve, poor fit]
65 | CCC(CC)C(=O)NCCN1CCN(C(=O)C(CC)CC)CC1 | inconclusive [inhibitor, partial curve]
66 | N=c1n(Cc2ccccc2)c2ccccc2n1CC(O)c1ccccc1 (configuration not stated) | active: 2.08 µM
67 | O=C(CSc1ccccc1[N+](=O)[O-])NC1CCS(=O)(=O)C1 (configuration not stated) | inactive
68 | Cc1ccc(C)c(-n2sc3ccc(F)cc3c2=O)c1 | active: 2.08 µM
69 | Cc1ccc(Sc2c(C=O)c3ccccc3n2C)cc1 | inactive
70 | Cc1ccc(C(=O)Nc2ncccc2C)cc1S(=O)(=O)N1CCCCC1 | inconclusive [inhibitor, partial curve, poor fit]
71 | CC1(C)O[C@@H]2C[C@H]3[C@@H]4CCC5=CC(=O)C=C[C@]5(C)[C@@]4(F)[C@@H](O)C[C@]3(C)[C@]2(C(=O)CO)O1 | inconclusive [inhibitor, single point]
72 | Cc1ccc(OCC(=O)N(Cc2cccc(F)c2)C2CCS(=O)(=O)C2)cc1 (configuration not stated) | inconclusive [inhibitor, single point]
73 | COc1cc2oc(-c3ccc(O)cc3)cc(=O)c2c(O)c1OC | inactive
74 | CCN1c2ccccc2NC2N=C(OC)C(c3ccccc3)C21 (configuration not stated) | inconclusive [inhibitor, single point]
75 | Cc1noc(C)c1COc1ccc(C(=O)NNC(=O)c2ccccc2F)cc1 | inactive
76 | CN(Cc1cn(C)nc1-c1ccc(Oc2ccccc2)cc1)CC1COCCO1 (configuration not stated) | inconclusive [inhibitor, full curve, poor fit]
77 | COc1cc(Nc2nc(-c3ccccc3)c3cc(C)ccc3n2)cc(OC)c1OC | inconclusive [inhibitor, single point]
